# Results from PubChem BioAssay AID686970 (National Center for Advancing Translational Sciences (NCATS), 2013).
# In all, about 360,000 compounds went through this assay and about 6,000 (1.7%) were called active. This list was built around the results that the source calls inconclusive (neither active nor inactive); the mix of calls is not that of the screen. Calls follow the shape of the dose curve; as a rule, active = well fitted cell-killing curve with a large enough effect; inconclusive = small, poorly fitted or top-dose-only effect, or effect the other way; inactive = flat fitted curve, though single readings scatter. Potencies of inconclusive entries are left out as doubtful fits.
# Experiment: qHTS for induction of synthetic lethality in tumor cells producing 2HG: qHTS for the HT-1080-NT fibrosarcoma cell line;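 also: NT is the 2HG producing partner of a matched IDH1 knockdown line; nearly all actives have a fitted effect of over 55% in size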;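 as to activity, negative = less viability: 0% = DMSO-treated cells and -100% = media-only wells without cells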
# Conditions: HT-1080-NT fibrosarcoma viability, CellTiter-Glo ATP luminescence, 48 h; activity, negative = less viability: at 46.1 µM (top of the series) unless noted
# Summary of the method: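 Fibrosarcoma NT cells, 750 per well in 5% FBS RPMI, were exposed to compound for 48 hours. Viability: CellTiter-Glo luminescence.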
# Potency is read from the fitted curve at half-maximal effect; tags tell the direction and shape of the fitted curve.
Structure (SMILES),"activity, negative = less viability",Potency
COc1cccc(C(=O)NC(c2ccccc2)C2CCCC2)c1 (stereo unspecified),inactive: -0.636%,
O=C(NCC(c1ccc(F)cc1)N1CCOCC1)c1c(F)cccc1F (stereo unspecified),,"inconclusive [rising, single point]"
Cc1ccc2c3c1C1(C(=O)N3C(C)(C)CC2C)C(C#N)=C(N)Oc2cc(O)ccc21 (stereo unspecified),,"inconclusive [cytotoxic, single point]"
COc1ccc(COC(=O)CCNC(=O)c2ccc(Cl)cc2)cc1,inactive: -2.25%,
Cc1cccc(C)c1-c1ccc(CN2C(CC(C)C)C(=O)N(Cc3cn(CC4CCCCC4)nn3)CCS2(=O)=O)cc1 (stereo unspecified),,"inconclusive [cytotoxic, single point]"
OC[C@H]1O[C@@H](c2nc(-c3ccccc3Br)no2)[C@H](O)[C@@H]1O,,active: 10.3 µM
Cc1ccc(S(=O)(=O)CCC(=O)OCc2ccccc2)cc1,inconclusive: 35.7%,
O=C1NC[C@H](Cc2ccccc2)N(C[C@@H]2CCCN2C[C@H](Cc2ccc(O)cc2)N2C[C@H](Cc3ccc(O)cc3)N(CC3CCCCC3)C(=O)C2=O)C1=O,,"inconclusive [cytotoxic, single point]"
O=C(Cc1ccc(N2CCNC2=O)cc1)N1CCCC(Nc2cccc(F)c2)C1 (stereo unspecified),,"inconclusive [cytotoxic, full curve]"
Cc1ccc(Cn2c(NCCCn3ccnc3)nc3c2c(=O)n(C)c(=O)n3C)cc1,inactive: -6.62%,
CCOc1ccc(CC(=O)Nc2sc(Cc3ccccc3)c(C)c2C(N)=O)cc1OCC,,"inconclusive [cytotoxic, partial curve]"
COc1ccc(Cl)cc1C(=O)NNC(=S)NC(=O)c1cc(-c2ccccc2)nc2ccccc12,,"inconclusive [cytotoxic, partial curve]"
Cc1noc(C)c1S(=O)(=O)N1CCC(C(=O)NC2CCCc3ccccc32)CC1 (stereo unspecified),inactive: -4.23%,
O=C(CSc1nnc(CCc2ccccc2)n1-c1ccc(Cl)cc1)c1ccccc1,inactive: 4.33%,
CCN(CC)CCCNC(=O)C1CCN(C(=O)c2cc3sccc3n2Cc2ccc(F)cc2)CC1,,"inconclusive [cytotoxic, single point]"
c1ccc(Nc2ncnc3sc4c(c23)CCC4)cc1,inactive: 0.443%,
C=C(C)C1CC=C(C)/C(=N/NC(=O)COc2cccc3ccccc23)C1 (stereo unspecified),inactive: 2.62%,
CCCNC(=O)C(Cc1ccccc1C)NC(=O)c1ccc(C(F)(F)F)cc1 (stereo unspecified),inactive: 12.2%,
Cc1cccc(NC(=O)c2ccc(CN3CCc4ccccc4C3)cc2)c1C,,"inconclusive [cytotoxic, single point]"
CCOC(=O)CCCCCC(=O)Nc1ccc2c(c1)C(=O)N([C@@H](C)CO)C[C@@H](C)[C@H](CN(C)C(=O)c1ccncc1)OCCCC[C@H](C)O2,inactive: -2.93%,
COc1cc(/C=N\NC(=O)c2ccc(-c3ccccc3)cc2)ccc1OCC(N)=O,,"inconclusive [cytotoxic, single point]"
CN(C)CCCn1c(N)c(C#N)c2nc(C#N)c(C#N)nc21,,"inconclusive [cytotoxic, single point]"
Nc1nc2ccccc2n1C(=O)c1ccccc1,,"inconclusive [cytotoxic, single point]"
CC(C)(C)c1cc(=O)n(-c2ccccc2)[nH]1,,"inconclusive [cytotoxic, single point]"

Structure (SMILES),"activity, negative = less viability",Potency
CC(C)Cn1c(=O)c2ccccc2n2c(SCC(=O)N3c4ccccc4CC3C)nnc12 (stereo unspecified),inactive: 2.11%,
OCCN1CCN(c2ncnc3c2ncn3[C@H]2CN(Cc3ccc(-c4ccccc4)cc3)C[C@@H](CO)O2)CC1,,active: 20.6 µM
O=C(N/N=C/c1ccc(F)cc1)c1cc(-c2ccco2)nc2ccccc12,,"inconclusive [cytotoxic, single point]"
CCCCOc1ccc(Br)cc1CSC(=N)N,,active: 23.1 µM
CCN(c1ccc(OC)cc1)S(=O)(=O)N1CCCC(C(=O)NCc2cccc(C)c2)C1 (stereo unspecified),inactive: -3.4%,
CCOC(=O)c1nnc(-c2ccccc2)nc1Sc1ccccc1Cl,,"inconclusive [cytotoxic, single point]"
O=C(c1cccc(S(=O)(=O)N2CCOCC2)c1)N1CCCc2ccccc21,inactive: -3.92%,
CSc1nnc(-c2ccccc2N=Cc2c(C)[nH]n(-c3ccc4ccccc4c3)c2=O)c(=O)[nH]1,,"inconclusive [cytotoxic, partial curve]"
Cc1ccccc1C(=O)Nc1nnc(S(=O)(=O)N(C)Cc2ccco2)s1,,"inconclusive [cytotoxic, single point]"
Cc1cnccc1CN(C)Cc1cn(C)nc1-c1ccc(Oc2ccccc2)cc1,,"inconclusive [cytotoxic, single point]"
O=C(COC(=O)c1ccc(O)cc1O)N=c1sccn1Cc1ccccc1Cl,inactive: 0.433%,
COc1ccc2cc(C(=O)N3CCN(Cc4ccc5c(c4)OCO5)CC3)[nH]c2c1,inconclusive: -16.1% [cytotoxic],
CCOc1ccc(N2C(=O)CC(Sc3nc4ccc(OCC)cc4s3)C2=O)cc1 (stereo unspecified),inactive: 17.2%,
C(=N\Nc1ncnc2ccccc12)/c1ccccc1,,active: 23.1 µM
Cc1noc2ncnc(Sc3ccc(Cl)cc3)c12,,"inconclusive [cytotoxic, single point]"
O=S1(=O)CC/C(=N\Nc2ccc(F)cc2)c2ccsc21,,"inconclusive [cytotoxic, partial curve]"
CCOC(=O)c1ccc(N=c2sc(C(=O)OC)cc(=O)n2Cc2ccco2)cc1,,"inconclusive [cytotoxic, single point]"
O=C(COC(=O)[C@@H]1CCCN1S(=O)(=O)c1ccc(Cl)cc1)NCC(F)(F)F,inactive: 8.76%,
CC(=O)c1cccc(-c2ccnc3c2CC(C(=O)NCC2CC2)O3)c1 (stereo unspecified),,"inconclusive [cytotoxic, single point]"
CCN(CC(=O)Nc1ccc(NC(C)=O)cc1)C(=O)c1ccc2c(c1)S(=O)(=O)N=C1CCCCCN12,inactive: -27.9%,
COC(=O)CN(C)C(=O)c1ccc2nc(Cc3cccc(Cl)c3)oc2c1,inactive: 3.18%,
CCNC(=O)c1ccccc1SCc1ccccc1,inactive: -2.84%,
Cn1c(CCN2CCCCC2)nc2cc(NC(=O)COc3ccc(Cl)cc3)ccc21,,"inconclusive [cytotoxic, single point]"
CCSS(=O)(=O)c1cccc2cccnc12,,active: 32.6 µM

Structure (SMILES),"activity, negative = less viability",Potency
CN(C)Cc1n[nH]c(=O)c2ccccc12,inactive: -5.45%,
CN(C)CCCN(C(=O)c1ccc(S(=O)(=O)N(C)C2CCCCC2)cc1)c1nc2ccc(F)cc2s1,,"inconclusive [cytotoxic, single point]"
COCOCCn1cc(CN2CCS(=O)(=O)N(Cc3ccc(-c4ccc(OC)cc4)cc3)C(CC(C)C)C2=O)nn1 (stereo unspecified),,"inconclusive [cytotoxic, single point]"
C=CCc1cccc(/C=N/NC(=O)CCCNc2ccc(C)cc2)c1O,,"inconclusive [cytotoxic, single point]"
CCN(CC)CCNC(=O)c1cc2c(=O)n(C)c3ccccc3c2n1C,inactive: -4.07%,
COc1cc(OC)cc(C(=O)NNC(=O)c2ccc3ccccc3n2)c1,,"inconclusive [cytotoxic, single point]"
Cc1ccc(Cl)cc1N1CCN(S(=O)(=O)c2ccc3[nH]c(=O)ccc3c2)CC1,,"inconclusive [cytotoxic, single point]"
Cc1cc(C)c2nc(N3CCCC(C(=O)NCCCN4CCOCC4)C3)sc2c1 (stereo unspecified),,"inconclusive [cytotoxic, single point]"
Fc1ccc(NC(=S)Nc2cccnc2)c(F)c1F,inactive: -1.08%,
O=C(CNc1cccc(C(F)(F)F)c1)N/N=C/c1cn(-c2ccccc2)nc1-c1ccccc1,,"inconclusive [cytotoxic, single point]"
CCc1nc2c(OCCc3cccc(OC)c3)cccn2c1N(C)C(=O)c1cccs1,,"inconclusive [cytotoxic, partial curve]"
Cc1ccccc1OCCn1c(C)nc2ccccc21,inactive: -17.9%,
O=C(CC1NCCc2ccccc21)Nc1ccc(Cl)cc1 (stereo unspecified),,"inconclusive [cytotoxic, partial curve]"
CC(C)CC(C(=O)O)N(Cc1ccccc1)Cc1ccccc1 (stereo unspecified),inactive: -2.51%,
Cc1cc(C)c(S(=O)(=O)/N=C2/C=C(SCC(=O)O)C(=O)c3ccccc32)cc1C,,"inconclusive [cytotoxic, partial curve]"
CC1CCCCN1CCNC(=O)c1ccc2c(c1)N(Cc1ccccc1F)C(=O)c1ccccc1S2=O (stereo unspecified),inactive: -26.9%,
COC(=O)C(NC(=O)CCc1c(C)nc2c(c(C)nn2-c2ccccc2)c1C)C(C)C (stereo unspecified),inactive: 0.138%,
O=C(COC(=O)c1cc(-c2ccc(Cl)s2)nc2ccccc12)NCc1ccco1,,"inconclusive [cytotoxic, single point]"
COc1ccc(-c2cc(NC=O)c3ncc(-c4ccccc4)n3c2)cc1OC,inconclusive: -81%,
NS(=O)(=O)c1ccc(CCNC(=O)C2CCC(CNS(=O)(=O)c3ccc(Br)s3)CC2)cc1 (stereo unspecified),,"inconclusive [cytotoxic, single point]"
O=C(CN1C(=O)c2ccccc2C1=O)C(O)CN1C(=O)c2ccccc2C1=O (stereo unspecified),,"inconclusive [rising, single point]"
O=C(NC(=S)Nc1ccc(N2CCCCC2)cc1)c1ccco1,,active: 7.08 µM
Cc1ccc(C)c(N2CCN(CCCNC(=O)Cn3cc4c(n3)CCCCC4)CC2)c1,,"inconclusive [cytotoxic, partial curve]"
